Experimental data as given in article PMC6212790.
The list shows a part of the results. At the low end of the ranking the order means little.

molecular target: T1, GST-Rok (full length) (UniProt O34857); assay: protein binding microarray; conditions: Rok is a gene silencer of Bacillus subtilis; high values mean tight binding; most listed sequences are background and not binding sites; double strand, one strand shown;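 note: rank score from −0.5 (least bound) to 0.5 (best bound)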
T1 sequence: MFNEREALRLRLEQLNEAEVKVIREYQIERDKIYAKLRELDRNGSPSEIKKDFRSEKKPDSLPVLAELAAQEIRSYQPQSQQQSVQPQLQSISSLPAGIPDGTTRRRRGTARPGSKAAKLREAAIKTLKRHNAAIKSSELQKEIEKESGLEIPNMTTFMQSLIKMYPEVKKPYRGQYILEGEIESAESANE

| Sequence | binding signal |
| --- | --- |
| AAGCGCAT | -0.128 E-score |
| AAAACTGT | -0.0241 E-score |
| AACAGCTG | -0.114 E-score |
| CAGATGGA | -0.0806 E-score |
| GGGCCCCA | -0.367 E-score |
| ATACCCCG | -0.0652 E-score |
| GCAAATAA | 0.0797 E-score |
| CGGGTTAA | -0.0758 E-score |
| CCAGGCCG | -0.203 E-score |
| AGGGCTCG | -0.311 E-score |
| AGGTGGCG | -0.164 E-score |
| CGGCTTGC | -0.137 E-score |
| ATAGAATA | 0.356 E-score |
| CTACACGA | 0.22 E-score |
| AACCTACC | 0.261 E-score |
| ATTAACTG | 0.14 E-score |
| AGCTTCTG | -0.0196 E-score |
| GTAAGTCA | -0.0377 E-score |
| TAGACTCA | -0.0914 E-score |
| AGGTAGAG | 0.122 E-score |
| ATTGGGCA | -0.0946 E-score |
| CTCACATC | -0.0789 E-score |
| GCTAGTTA | 0.337 E-score |
| CCCCAAAC | -0.114 E-score |
| CGCACATC | 0.118 E-score |

| Sequence | binding signal |
| --- | --- |
| GACACCTC | -0.168 E-score |
| TAGAGGCA | -0.0316 E-score |
| CGAGTTAA | 0.153 E-score |
| ACCGGGTA | 0.0353 E-score |
| CACCTCCA | -0.127 E-score |
| CTAGGAAC | -0.0546 E-score |
| CTAACTGC | -0.0169 E-score |
| ACGGCGGC | -0.225 E-score |
| CGGTACCG | -0.0707 E-score |
| AGAATGCA | 0.0884 E-score |
| ATCTTCGA | 0.116 E-score |
| GGGCACCC | -0.421 E-score |
| AAAATGGC | 0.0869 E-score |
| GCCGGACA | -0.142 E-score |
| CATTTCCC | -0.245 E-score |
| CCGAGGTA | 0.0763 E-score |
| AAATCGGT | 0.0362 E-score |
| GAGTTAGC | 0.0512 E-score |
| AGAGGGAA | -0.215 E-score |
| ACGCATCC | -0.0312 E-score |
| ACAGATCG | -0.185 E-score |
| GATCCGTA | 0.127 E-score |
| ATGTCTAA | 0.156 E-score |
| AAGAACAC | -0.118 E-score |
| CATCCTCA | -0.17 E-score |

| Sequence | binding signal |
| --- | --- |
| GGAAGCAC | -0.116 E-score |
| AGGTCCAC | -0.218 E-score |
| ACGGCACC | -0.184 E-score |
| ACCGGCGT | -0.171 E-score |
| ATCTCTTC | -0.0167 E-score |
| GTGGATAA | 0.0153 E-score |
| CTTAGACA | -0.177 E-score |
| CATCTAAG | 0.0719 E-score |
| GATGGGAC | -0.21 E-score |
| CACCCCCC | -0.431 E-score |
| TCCTCGCA | -0.117 E-score |
| ACGAGTCA | -0.175 E-score |
| ATTGAAGG | -0.154 E-score |
| CTAAGGTA | 0.184 E-score |
| CTTATTCC | 0.0398 E-score |
| AACCATAG | 0.0557 E-score |
| GCGGTGCC | -0.338 E-score |
| CATTTCGC | 0.0599 E-score |
| AGCCAGAA | -0.231 E-score |
| CCTAGTAG | 0.233 E-score |
| AAGGCATA | -0.00109 E-score |
| CGGGACAC | -0.2 E-score |
| AATGAGCA | -0.0821 E-score |
| AGAACTAC | 0.327 E-score |
| ATAAAATA | 0.426 E-score |

| Sequence | binding signal |
| --- | --- |
| GAAATTTA | 0.257 E-score |
| AATACCTC | 0.0643 E-score |
| CTGCGTGC | -0.096 E-score |
| AATCATCC | -0.19 E-score |
| ACAGCCAT | 0.0912 E-score |
| CGAGCGTA | -0.132 E-score |
| AATATCCG | 0.19 E-score |
| AGAGTCAG | -0.00297 E-score |
| AGGCTTGC | 0.00461 E-score |
| CGCTCAGA | -0.068 E-score |
| CTTGCGCC | -0.391 E-score |
| ATATACAT | 0.302 E-score |
| CCCGATGA | -0.235 E-score |
| ACCTAGAC | 0.0548 E-score |
| GTCATAGA | -0.0811 E-score |
| TCCCCGGA | -0.278 E-score |
| AAACGAAC | -0.0489 E-score |
| CTGCAACC | -0.0202 E-score |
| TGACAAAA | 0.0614 E-score |
| ACTATTGC | 0.401 E-score |
| AGATGACA | 0.122 E-score |
| AAGACTGC | -0.0879 E-score |
| AGTGAATC | -0.0713 E-score |
| ACAAGCGC | -0.0126 E-score |
| CCGATCGC | -0.204 E-score |

| Sequence | binding signal |
| --- | --- |
| GTCGTCCA | -0.219 E-score |
| GTAATCTA | 0.245 E-score |
| GAAAAAGA | -0.0371 E-score |
| AGATTGCG | 0.0888 E-score |
| ACCGTTTC | -0.193 E-score |
| CGATGAGC | -0.131 E-score |
| CAAAGCTA | 0.116 E-score |
| CCATCCAA | 0.0204 E-score |
| ATCCGTGG | -0.381 E-score |
| ATCGTACG | 0.123 E-score |
| ACCCTTCT | -0.185 E-score |
| TTGCCCAA | -0.068 E-score |
| ATGGGCAA | -0.107 E-score |
| GCCCATCA | -0.229 E-score |
| GCCTACGC | -0.122 E-score |
| CATTTAGA | 0.0489 E-score |
| GACGTAGC | 0.0184 E-score |
| TCTAGGAA | -0.0926 E-score |
| CGTTAATA | 0.296 E-score |
| GGTGTAAA | 0.0751 E-score |
| GACTGTCC | -0.139 E-score |
| GGGGATAC | -0.178 E-score |
| AACAATGG | -0.0288 E-score |
| CTTTATGA | 0.179 E-score |
| AGTCGAGA | -0.074 E-score |

| Sequence | binding signal |
| --- | --- |
| CAGTTACA | 0.24 E-score |
| ACGTGTCG | -0.0685 E-score |
| ACGGTCAC | -0.0241 E-score |
| GCACTACC | -0.000872 E-score |
| GCACTTGA | -0.166 E-score |
| AAGGCGTG | -0.143 E-score |
| CTATTTAC | 0.342 E-score |
| CGGAAGAC | -0.147 E-score |
| CGTAGTTC | 0.255 E-score |
| CGGTTCAA | -0.118 E-score |
| ACCAGGCG | -0.11 E-score |
| CACCTAAG | -0.219 E-score |
| AGCTACAA | 0.205 E-score |
| CAGCCGCA | -0.227 E-score |
| CCTTTCTA | 0.158 E-score |
| ATGCCAGA | -0.172 E-score |
| AATACTTA | 0.316 E-score |
| ACGGTAAA | 0.349 E-score |
| ATAACTGA | 0.206 E-score |
| GTCCGAGA | -0.0843 E-score |
| CACTCGGA | -0.103 E-score |
| AAGTAATT | 0.328 E-score |
| CGCCTAAG | -0.126 E-score |
| GGGCGACC | -0.447 E-score |
| CCGGCCCA | -0.196 E-score |

| Sequence | binding signal |
| --- | --- |
| GTGATATA | 0.25 E-score |
| ACTTTCAG | 0.0674 E-score |
| ATAACGCA | 0.155 E-score |
| ACCGCGCG | 0.0271 E-score |
| TTAGATAA | 0.251 E-score |
| GGCTATGA | -0.078 E-score |
| AGCATTGG | -0.186 E-score |
| AACCCCCA | -0.396 E-score |
| AAAGTCGG | -0.122 E-score |
| CTTCCAAA | -0.0355 E-score |
| GCTGCACC | -0.361 E-score |
| CTATCTTC | 0.11 E-score |
| TCGGCCCA | -0.134 E-score |
| AATATTCT | 0.338 E-score |
| AGCAGACG | 0.136 E-score |
| GAGCTATC | 0.107 E-score |
| ATTTTACA | 0.311 E-score |
| CTCTATAA | 0.0692 E-score |
| CCTCTGCA | -0.125 E-score |
| TTCATAAA | 0.127 E-score |
| GCAGTCCA | -0.102 E-score |
| ACCTAATG | -0.00946 E-score |
